# Some of the results follow.
# B1: Sebin1 (Coprinopsis cinerea), A8PEE3 (protein)
# chain: MTSPFYAHIHNVQDDNTWRFTLIFANRATADEWWRAISEAPANTSIAKSITRVTPQYYTHDVNIWNIWNFFADGNIKSISERFRGRLFIVLENDRGGRGITVIPPVPIVDHVSGNWFYIRSKTAPHLFWYYDERRSSIYASKEKRTRFKISIRNPSSQTPKNAIMINTDDVTIHIKENLYVGVDNNLGHIIPTRAYRTFKFGELESGAIAGFDVVENIEERCSSTFDGASLSISGPDSSSPGEPWELV
# Key:
# Assay in all cases: glycan array binding signal (z-score within array); higher = stronger binding
# Settings in all cases: glycan notation: IUPAC condensed, linker removed
# Gal6S(b1-4)Glc = biological target: Gal6S(b1-4)Glc
# Outline: (§1)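 The binding signal is a Z-score computed within each array and averaged over linkers. Arrays of the same protein sequence at different concentrations or buffers were also averaged together. Data originate from 3228 arrays in the Consortium for Functional Glycomics database, kept only where the protein sequence was available.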
# Gal6S(b1-4)Glc6S = biological target: Gal6S(b1-4)Glc6S
# Outline: as §1
# Gal6S(b1-4)GlcNAc = biological target: Gal6S(b1-4)GlcNAc
# Outline: as §1
# Gal6S(b1-4)GlcNAc6S = biological target: Gal6S(b1-4)GlcNAc6S
# Outline: as §1
# GalNAc(a1-3)Gal = biological target: GalNAc(a1-3)Gal
# Outline: as §1
# GalNAc(a1-3)GalNAc = biological target: GalNAc(a1-3)GalNAc
# Outline: as §1
# [1] = biological target: GalNAc(a1-3)GalNAc(b1-3)Gal(a1-4)Gal(b1-4)Glc
# Outline: as §1
# [2] = biological target: GalNAc(a1-3)GalNAc(b1-3)Gal(a1-4)Gal(b1-4)GlcNAc
# Outline: as §1
# GalNAc(b1-3)Gal = biological target: GalNAc(b1-3)Gal
# Outline: as §1
# [3] = biological target: GalNAc(b1-3)Gal(a1-4)Gal(b1-4)GlcNAc
# Outline: as §1
# [4] = biological target: GalNAc(b1-3)Gal(a1-4)Gal(b1-4)GlcNAc(b1-3)Gal(b1-4)Glc
# Outline: as §1
# [5] = biological target: GalNAc(b1-3)Gal(a1-6)Gal(b1-4)Glc
# Outline: as §1
# GalNAc(b1-3)GalNAc = biological target: GalNAc(b1-3)GalNAc
# Outline: as §1
# GalNAc(b1-3)GlcNAc = biological target: GalNAc(b1-3)GlcNAc
# Outline: as §1
# GalNAc(b1-4)Gal(b1-4)Glc = biological target: GalNAc(b1-4)Gal(b1-4)Glc
# Outline: as §1
# GalNAc(b1-4)GlcNAc = biological target: GalNAc(b1-4)GlcNAc
# Outline: as §1
# [6] = biological target: GalNAc(b1-4)GlcNAc(b1-2)Man
# Outline: as §1
# [7] = biological target: GalNAc(b1-4)GlcNAc(b1-2)Man(a1-3)[GalNAc(b1-4)GlcNAc(b1-2)Man(a1-6)]Man(b1-4)GlcNAc(b1-4)GlcNAc
# Outline: as §1
# [8] = biological target: GalNAc(b1-4)GlcNAc(b1-3)GalNAc(b1-4)GlcNAc
# Outline: as §1
# GalNAc(b1-4)GlcNAc6S = biological target: GalNAc(b1-4)GlcNAc6S
# Outline: as §1
# GalNAc(b1-6)GalNAc = biological target: GalNAc(b1-6)GalNAc
# Outline: as §1
# GalNAc3S(b1-4)GlcNAc = biological target: GalNAc3S(b1-4)GlcNAc
# Outline: as §1
# GalNAc3S(b1-4)GlcNAc3S = biological target: GalNAc3S(b1-4)GlcNAc3S
# Outline: as §1
# [9] = biological target: GalNAc3S(b1-4)[Fuc(a1-3)]GlcNAc
# Outline: as §1
# GalNAc4S6S(b1-4)GlcNAc = biological target: GalNAc4S6S(b1-4)GlcNAc
# Outline: as §1
# GalNAc6S(b1-4)GlcNAc = biological target: GalNAc6S(b1-4)GlcNAc
# Outline: as §1
# Glc(a1-4)Glc = biological target: Glc(a1-4)Glc
# Outline: as §1
# [10] = biological target: Glc(a1-4)Glc(a1-4)Glc(a1-4)Glc
# Outline: as §1
# Glc(a1-6)Glc(a1-6)Glc = biological target: Glc(a1-6)Glc(a1-6)Glc
# Outline: as §1
# [11] = biological target: Glc(a1-6)Glc(a1-6)Glc(a1-6)Glc
# Outline: as §1
# Glc(b1-4)Glc = biological target: Glc(b1-4)Glc
# Outline: as §1
# Glc(b1-6)Glc = biological target: Glc(b1-6)Glc
# Outline: as §1
# GlcA(b1-3)Gal = biological target: GlcA(b1-3)Gal
# Outline: as §1
# GlcA(b1-3)GlcNAc = biological target: GlcA(b1-3)GlcNAc
# Outline: as §1
# GlcA(b1-6)Gal = biological target: GlcA(b1-6)Gal
# Outline: as §1
# [12] = biological target: GlcA3S(b1-3)Gal(b1-4)GlcNAc(b1-2)Man
# Outline: as §1
# [13] = biological target: GlcA3S(b1-3)Gal(b1-4)GlcNAc(b1-3)Gal(b1-4)Glc
# Outline: as §1
binder,measurement,setting,value
B1,glycan array binding signal (z-score),Gal6S(b1-4)Glc,0.006
same,glycan array binding signal (z-score),Gal6S(b1-4)Glc6S,-0.153
same,glycan array binding signal (z-score),Gal6S(b1-4)GlcNAc,0.056
same,glycan array binding signal (z-score),Gal6S(b1-4)GlcNAc6S,0.222
same,glycan array binding signal (z-score),GalNAc(a1-3)Gal,-0.221
same,glycan array binding signal (z-score),GalNAc(a1-3)GalNAc,-0.559
same,glycan array binding signal (z-score),[1],0.104
same,glycan array binding signal (z-score),[2],-0.224
same,glycan array binding signal (z-score),GalNAc(b1-3)Gal,-0.567
same,glycan array binding signal (z-score),[3],0.518
same,glycan array binding signal (z-score),[4],-0.291
same,glycan array binding signal (z-score),[5],-0.144
same,glycan array binding signal (z-score),GalNAc(b1-3)GalNAc,-0.907
same,glycan array binding signal (z-score),GalNAc(b1-3)GlcNAc,-0.459
same,glycan array binding signal (z-score),GalNAc(b1-4)Gal(b1-4)Glc,1.79
same,glycan array binding signal (z-score),GalNAc(b1-4)GlcNAc,-0.552
same,glycan array binding signal (z-score),[6],-0.15
same,glycan array binding signal (z-score),[7],0.758
same,glycan array binding signal (z-score),[8],0.927
same,glycan array binding signal (z-score),GalNAc(b1-4)GlcNAc6S,0.053
same,glycan array binding signal (z-score),GalNAc(b1-6)GalNAc,-0.575
same,glycan array binding signal (z-score),GalNAc3S(b1-4)GlcNAc,-0.449
same,glycan array binding signal (z-score),GalNAc3S(b1-4)GlcNAc3S,-0.269
same,glycan array binding signal (z-score),[9],-0.86
same,glycan array binding signal (z-score),GalNAc4S6S(b1-4)GlcNAc,-0.04
same,glycan array binding signal (z-score),GalNAc6S(b1-4)GlcNAc,0.464
same,glycan array binding signal (z-score),Glc(a1-4)Glc,-0.581
same,glycan array binding signal (z-score),[10],-0.161
same,glycan array binding signal (z-score),Glc(a1-6)Glc(a1-6)Glc,-0.354
same,glycan array binding signal (z-score),[11],-0.198
same,glycan array binding signal (z-score),Glc(b1-4)Glc,-0.448
same,glycan array binding signal (z-score),Glc(b1-6)Glc,-0.361
same,glycan array binding signal (z-score),GlcA(b1-3)Gal,-0.505
same,glycan array binding signal (z-score),GlcA(b1-3)GlcNAc,-0.053
same,glycan array binding signal (z-score),GlcA(b1-6)Gal,-0.346
same,glycan array binding signal (z-score),[12],-0.093
same,glycan array binding signal (z-score),[13],0.277
